Measurements as given in the supplement of paper PMC3334620.
In all, about 33,000 sequences were measured (“E-score (-0.5 to 0.5)”: median about -0.04, highest 2% from about 0.36 on). This is one part of the list.

target: T1, Hmlalpha2 (UniProt P0CY09); assay: PBM E-score (8-mer binding enrichment) (E-score (-0.5 to 0.5)); higher = stronger / more preferred TF binding; most listed sequences are background and not binding sites; conditions: protein concentration: 200 nM; construct: GST-full length
T1 sequence: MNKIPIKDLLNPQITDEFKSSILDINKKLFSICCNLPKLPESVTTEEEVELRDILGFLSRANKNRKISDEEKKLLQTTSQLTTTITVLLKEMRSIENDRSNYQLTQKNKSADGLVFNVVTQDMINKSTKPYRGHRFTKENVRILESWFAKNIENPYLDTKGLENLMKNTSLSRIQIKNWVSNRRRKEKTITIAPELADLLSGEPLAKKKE
How it was run: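 E-scores (a modified Wilcoxon-Mann-Whitney statistic) were assigned by the Universal PBM Analysis Suite to every ungapped eight-base word pooled with its reverse complement. The input came from universal all-10-mer Agilent arrays made double-stranded by primer extension and probed with GST-tagged yeast transcription factors at about 100-200 nM. Fluorescent anti-GST detected bound protein, and masliner normalised the scans.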

Row | Sequence | PBM E-score
1 | CTAGTCAA | -0.13
2 | TTGGCAAA | 0.104
3 | AAACGTGG | -0.0689
4 | AGAGAAAT | -0.0274
5 | GAGGTGCA | -0.0481
6 | AAAGCGCC | -0.202
7 | CGTTCCTA | -0.0489
8 | AGATAATA | 0.0717
9 | AAATGAAT | 0.0259
10 | ACTGGATC | -0.0567
11 | CAGATCAG | 0.205
12 | CGCCACTC | -0.136
13 | ATACTGCA | -0.0288
14 | CGACTATA | 0.146
15 | CTATCCAC | -0.0992
16 | ACACACGA | 0.322
17 | AGCCCTAA | 0.00565
18 | ATGGCATA | -0.0529
19 | AGTCTCGG | -0.261
20 | AGCCCATG | 0.00706
21 | CCTAATCA | 0.0766
22 | AGATCCCC | -0.109

Row | Sequence | PBM E-score
23 | AGGATAGA | -0.0436
24 | CTTATATC | 0.0225
25 | CTCTTAAA | 0.0249
26 | ATTACTTC | 0.16
27 | CCTTTGGA | -0.243
28 | ATGTCCCC | -0.11
29 | AGAAGAAT | -0.0367
30 | AGTCCCCC | -0.4
31 | AAGGCTCT | -0.237
32 | CACTCACC | -0.256
33 | AGATACAG | -0.0238
34 | GATCTCGA | -0.0622
35 | ACTGGCAG | -0.0934
36 | AGGCCTTC | -0.156
37 | CGACCTTC | -0.315
38 | ACCTGAGT | 0.0645
39 | ATGGGTCG | -0.3
40 | GACATGCA | 0.294
41 | GTCGCATA | 0.146
42 | CGACAGCA | -0.0958
43 | GCATGTGA | 0.263
44 | AATTCCAA | 0.118

Row | Sequence | PBM E-score
45 | CTCATACA | 0.0274
46 | CGGCGTAA | 0.214
47 | CTTCCAGA | -0.18
48 | CCTCACTA | -0.315
49 | AAACAGAA | 0.00626
50 | ATCGGCCC | -0.277
51 | TATTAGGA | 0.196
52 | CCTTTTGC | -0.282
53 | ACTTTAAG | -0.0195
54 | ACGCCTGC | -0.0664
55 | GCATCCGC | -0.114
56 | AGGATCCC | -0.174
57 | GCTCCTAA | -0.0974
58 | GGGATAAA | 0.136
59 | ACACGCAG | 0.313
60 | GCTCAGAA | -0.0102
61 | GTCGGAAC | -0.00797
62 | GCAACTGA | -0.00457
63 | CCCTCGCA | -0.306
64 | GGTCAAAC | 0.00702
65 | ATAGTGCC | -0.103
66 | GGAGATAA | -0.0441

Row | Sequence | PBM E-score
67 | CCCTTGTC | -0.0241
68 | CCGCACGC | -0.18
69 | ACCTTACA | 0.183
70 | TAAGGCTA | -0.106
71 | AAGAGATT | 0.00461
72 | ACGTAAAA | 0.388
73 | GCGACGAA | -0.108
74 | CCTTTAAA | 0.0839
75 | AAGCAATG | 0.16
76 | AACACATC | 0.291
77 | GGTTACTA | 0.00432
78 | ATCCGACG | 0.0174
79 | AGAGCGCT | -0.127
80 | CCGTTCGC | -0.172
81 | AACTGACG | -0.167
82 | CACATAAC | 0.242
83 | CCGCAGCC | -0.332
84 | AGTTGAAG | -0.0465
85 | AAGCAACC | -0.0604
86 | ACACCCTA | 0.097
87 | ATCGGAAT | 0.099
88 | ACATAAGG | 0.331

Row | Sequence | PBM E-score
89 | CCTCTGGA | -0.146
90 | GCCTGTCA | -0.0584
91 | AGGACGAT | 0.0737
92 | GGACGGTA | -0.157
93 | CACGCGAC | 0.128
94 | AGGAACCG | -0.226
95 | CGCGCATA | 0.0684
96 | GTGCGCCA | -0.128
97 | GTAAAAAA | 0.286
98 | TGGCTAAA | 0.0228
99 | CTCTGCAA | -0.0611
100 | ATTCCTAA | 0.0708
101 | GCGACTCC | -0.283
102 | TGTCATAA | 0.268
103 | GATCAAAA | -0.0962
104 | CGACGTTC | -0.115
105 | AAACGAAG | 0.0335
106 | AGACAGAT | 0.00343
107 | AGTCGATA | -0.343
108 | AGATGGGA | -0.23
109 | AGCAATGC | -0.0707
110 | ATAAGGCC | -0.205
